Measurements taken from PubChem BioAssay AID1347417 (National Center for Advancing Translational Sciences (NCATS), 2020).
Among all 120,000 compounds or so, about 5,300 (4.4%) were called active. The shares of active, inactive and inconclusive entries below differ from those in the screen. Calls come from the whole dose curve; as a rule, active = well fitted inhibition curve with a large enough effect; inconclusive = small, poorly fitted or top-dose-only effect; inactive = no such curve, though single readings can be large or run the other way. Potencies beside an inconclusive call are fits to weak or partial responses and may not hold up.

Assay: qHTS Primary assay for Inhibitors of Plasmodium falciparum Dd2 growth in vitro; note: nearly all actives have a fitted effect of over 65% in size;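 for activity, negative = inhibition: plate controls were DMSO vehicle for no effect and reference drug for full effect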
Settings: P. falciparum Dd2 growth, SYBR Green, 72 h; activity, negative = inhibition: at 28.9 µM (top of the series) unless noted; series mostly up to 28.9 µM
Outline: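 Infected erythrocytes (Dd2, 0.3% parasitemia, 2.5% hematocrit final) are added to compound in RPMI-1640/Albumax II medium, grown 72 h at 37C in low oxygen, then lysed with saponin/Triton-X containing SYBR Green and read by fluorescence.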
Potency is the fitted concentration of half-maximal effect; tags give direction and shape of the fitted curve.

Row | Compound | Potency | activity, negative = inhibition
1 | Cc1nc(C2(C)CCN(C(=O)CCCC(=O)n3nc(C)c4ccccc43)CC2)no1 | inconclusive: 2.82 µM [inhibitor, partial curve] | 
2 | CN1C[C@@H](NC(=O)c2ccc(C(C)(C)C)cc2)C[C@H]1c1nc(-c2ccc3c(c2)OCO3)no1 | inconclusive: 17.8 µM [inhibitor, single point] | 
3 | Cc1cccc(C(=O)Nc2c(C(=O)NCc3ccc(Cl)cc3)sc3nc(C)cc(C)c23)c1 | inconclusive: 12.6 µM [inhibitor, single point] | 
4 | COc1ccc(OC)c(CCNC(=O)c2cnn(-c3ccccc3Cl)c2C2CCN(C(=O)OC(C)(C)C)CC2)c1 | active: 7.94 µM | 
5 | COc1ccc(CCNC(=O)c2cn(C)c3ccc(S(=O)(=O)N(C)C4CCCCC4)cc3c2=O)cc1OC | inconclusive: 5.62 µM [inhibitor, partial curve] | 
6 | CS(=O)(=O)N1CCCC1c1noc(CCC(=O)O)n1 (stereo not given) | inactive | 
7 | COc1ccc(NC(=O)c2c(C)oc3ccc(O)c(CN4CCCCCC4)c23)cc1Cl | active: 0.355 µM | 
8 | O=C(CCc1cccc(F)c1)N1CCC(C(=O)O)(n2cccn2)CC1 | inactive | 
9 | CCCN1C(=O)CCc2cc(NS(=O)(=O)c3cn(C)c(C)n3)ccc21 | inconclusive: 7.08 µM [inhibitor, partial curve] | 
10 | O=C(O)CCn1ncc2cc(OCC3CCN(C(=O)CC4CC4)CC3)ccc21 | inconclusive: 31.6 µM [inhibitor, single point] | 
11 | COc1ccc(-c2nc3ccncc3[nH]2)cc1 | inconclusive: 25.1 µM [inhibitor, partial curve, poor fit] | 
12 | O=C(C[C@H]1NC(=O)c2ccccc2NC1=O)Nc1nc(-c2ccccn2)cs1 | inactive | 
13 | Cc1cccc(N2CCN(C(=O)c3cc4c(=O)n(C)c5ccccc5c4s3)CC2C)c1 (stereo not given) | inactive | 
14 | CC1CCN(C(=O)C[C@@H]2O[C@H](CNC(=O)C3CC3)[C@@H](O)[C@H]2O)CC1 | inactive | 
15 | Cc1ccccc1C(=O)Nc1c(C)nc(Nc2ccccc2)nc1Nc1ccccc1 | inconclusive: 20 µM [inhibitor, partial curve, poor fit] | 
16 | CC(=O)N1c2ccc(S(=O)(=O)NCC3CCC(C(=O)Nc4cccc(C)c4C)CC3)cc2CC1C (stereo not given) | inconclusive: 10 µM [inhibitor, single point] | 
17 | COC1CN(c2cccc(F)c2)C12CCNCC2 (stereo not given) | inconclusive: 3.98 µM [inhibitor, full curve, poor fit] | 
18 | CC1CCCN1c1ncnc2c1CN(c1ccc(Cl)cc1)C(=O)CN2C (stereo not given) | inconclusive: 17.8 µM [inhibitor, single point] | 
19 | COc1ccc(-c2nc(SCc3cc(=O)c4cc(C)ccc4[nH]3)n[nH]2)cc1 | inconclusive: 12.6 µM [inhibitor, partial curve, poor fit] | 
20 | CC1=Nc2cc(C(=O)NCCc3ccccc3)ccc2Sc2c(C)ccc(C)c21 | inconclusive: 7.94 µM [inhibitor, partial curve, poor fit] | 

Row | Compound | Potency | activity, negative = inhibition
21 | CN(C)c1cc(N2CCCC(NC(=O)CCc3ccccc3)C2)ncn1 (stereo not given) |  | inactive: 36.2% [at 5.79 µM]
22 | Cc1ccc(Cn2c(SCC(=O)C(C)(C)C)nc3ccsc3c2=O)cc1 | inconclusive: 17.8 µM [inhibitor, single point] | 
23 | Cc1cccc(CN2CCC3(Cc4ccccc4CNC3=O)C2)c1 (stereo not given) | inconclusive: 10 µM [inhibitor, partial curve, poor fit] | 
24 | Cn1cccc1CN1CCC2(CC1)C(=O)Nc1ccccc12 | inconclusive: 7.94 µM [inhibitor, partial curve, poor fit] | 
25 | O=C1COc2ccc(Nc3ccccc3F)nc2CN1Cc1ccccc1F | inconclusive: 8.91 µM [inhibitor, partial curve, poor fit] | 
26 | Cc1cc(C)cc(C(=O)NCc2nnc3cc(-c4nc(C5CC5)no4)ccn23)c1 | inconclusive: 3.98 µM [inhibitor, single point] | 
27 | COc1ccc(OC)c(NC(=O)Nc2cccc(-c3ccc(N4CCCCC4)nn3)c2)c1 | inconclusive: 20 µM [inhibitor, single point] | 
28 | Cc1cnc(CCNC(=O)c2ccco2)n1C1CCC1 | inconclusive: 11.2 µM [inhibitor, single point] | 
29 | Cc1ccc(CN2CCCC(CNC(=O)NC(C)C)C2)cc1C (stereo not given) | inactive | 
30 | Cc1cc2c(cc1CNC1CC(C)(C)Cc3nc(C(C)(C)C)ncc31)OCO2 (stereo not given) | inactive | 
31 | Cc1ccc2c(c1)nc1n2[C@@H](CNCc2nccn2C)COC1 | inconclusive: 31.6 µM [inhibitor, single point] | 
32 | O=C(Nc1ccccc1)Nc1ccc2n(c1=O)C[C@H]1C[C@@H]2CN(C(=O)c2cccs2)C1 | inconclusive: 31.6 µM [inhibitor, single point] | 
33 | CCOC(=O)C[C@@H]1C[C@@H](C(C)C)[C@H](CNC(=O)C(C)(C)C)C=C1C | inconclusive: 15.8 µM [inhibitor, single point] | 
34 | CCc1noc(-c2cn(C3CCN(C(=O)c4cccc(NC(C)=O)c4)CC3)nn2)n1 | inconclusive: 3.16 µM [inhibitor, partial curve, poor fit] | 
35 | CC1CCN(C(=O)C[C@@H]2c3nc(NC(=O)CC(C)(C)C)sc3C[C@@H]3[C@](C)(CO)[C@H](O)CC[C@]32C)CC1 | inconclusive: 10 µM [inhibitor, partial curve, poor fit] | 
36 | O=C(NCc1nnc2c(-c3nc(C4CC4)no3)cccn12)c1ccccc1Cl | inconclusive: 8.91 µM [inhibitor, partial curve, poor fit] | 
37 | O=C1NCCCCCN(C(=O)CN2CCCCCC2)[C@H]2CCC[C@@H]12 | inactive | 
38 | CN1CC2(CCN(C(=O)C3CC3)CC2)CC1C(=O)N1CCOCC1 (stereo not given) | inactive | 
39 | Cc1ncccc1Oc1ncnc(N2CCCCC(N)C2)c1C (stereo not given) | inconclusive: 5.62 µM [inhibitor, partial curve, poor fit] | 
40 | COCCNC(=O)c1ccc(OC2CCN(CCc3ccccc3)CC2)c(Cl)c1 | inconclusive: 3.55 µM [inhibitor, single point] | 
